Test results taken from PubChem BioAssay AID588342 (National Center for Advancing Translational Sciences (NCATS), 2011).
In all, about 360,000 compounds went through this assay and about 25,000 (6.9%) were called active. Inconclusive results, whose numbers are uncertain, are shown with a selection of clear calls. The call rests on the fitted dose curve; in most records, active means well fitted inhibition curve with a large enough effect; inconclusive means small, poorly fitted or top-dose-only effect; inactive means flat fitted curve, though single readings scatter. Where the call is inconclusive, the potency comes from a doubtful curve fit.
Further: nearly all actives have a fitted effect of over 55% in size.
Potency means the concentration at half of the fitted maximal effect; tags describe the fitted curve by direction and shape.

The molecules below were run against Luciferin 4-monooxygenase (Photinus pyralis) (UniProt P08659) (assay: qHTS profiling assay for firefly luciferase inhibitor/activator using purifed enzyme and Km concentrations of substrates (counterscreen for miR-21 project)). Conditions: purified FLuc, luminescence inhibition; series mostly up to 57.5 µM.
Sequence of UniProt P08659 (P08659 whole entry, looked up): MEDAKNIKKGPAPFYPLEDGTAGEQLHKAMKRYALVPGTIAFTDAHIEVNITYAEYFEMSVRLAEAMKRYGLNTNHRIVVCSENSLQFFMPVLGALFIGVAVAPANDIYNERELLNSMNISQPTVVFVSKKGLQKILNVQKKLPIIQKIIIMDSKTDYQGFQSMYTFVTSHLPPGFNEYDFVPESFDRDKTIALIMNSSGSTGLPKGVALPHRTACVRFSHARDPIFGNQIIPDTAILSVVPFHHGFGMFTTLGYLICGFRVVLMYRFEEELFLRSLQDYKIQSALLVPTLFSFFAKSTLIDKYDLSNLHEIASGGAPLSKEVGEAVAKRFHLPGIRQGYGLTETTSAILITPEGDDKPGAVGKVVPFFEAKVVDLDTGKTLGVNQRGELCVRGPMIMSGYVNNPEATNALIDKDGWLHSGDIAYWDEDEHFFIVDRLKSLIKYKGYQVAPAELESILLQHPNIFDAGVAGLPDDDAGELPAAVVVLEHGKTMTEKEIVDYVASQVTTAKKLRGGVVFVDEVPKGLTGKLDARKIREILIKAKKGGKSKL
Outline: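 Purified P. pyralis luciferase, 10 nM final, with Km-level 10 uM D-luciferin and 10 uM ATP in 50 mM Tris acetate pH 7.5, 10 mM Mg acetate, 0.01% Tween-20, 0.05% BSA; 6-point qHTS titration about 60 µM downward; luminescence read.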
`CCOC(=O)c1c(C)[nH]c(C(=O)C(Cc2ccccc2)N(C)C)c1C` (centres undefined) was tested, and the Potency was inconclusive: 33.8 µM [inhibitor, partial curve, poor fit].
In the case of `CCN(CC)c1ccc(C=C2C(=O)N(C)C(=S)N(C)C2=O)o1`, the Potency was inconclusive: 33.8 µM [inhibitor, single point].
With `CCN1C(=O)NC(=O)/C(=C/c2cc(C)n(-c3sc(C)c(C)c3C#N)c2C)C1=O` the Potency was inconclusive: 26.9 µM [inhibitor, partial curve, poor fit].
`COCCNc1oc(-c2ccc(OC)cc2)nc1C#N` was tested, and the Potency was inconclusive: 26.9 µM [inhibitor, partial curve].
In the case of `N#CC(C#N)=C(C#N)c1ccc(Nc2ccccc2)cc1`, the Potency was inconclusive: 19 µM [inhibitor, partial curve].
`CCCCNC(=O)Nc1ccc(C(O)(C(=O)OC)C(F)(F)F)cc1` (centres undefined) was tested, and the Potency was inconclusive: 23.9 µM [inhibitor, partial curve, poor fit].
For `COc1ccc(CNCCc2ccc(Cl)cc2)c(OC)c1OC`, the Potency was “inactive”.
In the case of `C=CCc1c(C)[nH]c(=S)c(C#N)c1C`, the Potency was inconclusive: 8.49 µM [inhibitor, partial curve].
In the case of `COc1cccc(C(=O)Nc2ccc3nc(SCC(=O)N(C)c4ccccc4)sc3c2)c1`, the Potency was inconclusive: 5.36 µM [inhibitor, full curve].
With `CCCCCCOc1ccc(CN2CCN(CCO)CC2)cc1` the Potency was active: 19 µM.
`COc1cc(OC)c(OC)cc1/C=C1/C(=O)NC(=O)N(Cc2ccccc2)C1=O` was tested, and the Potency was inconclusive: 37.9 µM [inhibitor, partial curve, poor fit].
For `CCOc1ccc(OC(=O)c2ccc3c(=O)n4c(nc3c2)CCC4)cc1`, the Potency was active: 12 µM.
`CC(=O)Nc1ccc(NC(=O)Oc2ccccc2)cc1` was tested, and the Potency was inconclusive: 26.9 µM [inhibitor, single point].
With `O=C(Nc1ccc(F)c([N+](=O)[O-])c1)c1cccn(Cc2ccccc2)c1=O` the Potency was inconclusive: 19 µM [inhibitor, partial curve].
In the case of `Nc1c2c(nc3sc4c(c13)CCCC4)CCCCC2`, the Potency was active: 1.9 µM.
With `O=C(O)Cn1cc(/C=C2\C(=O)NC(=O)N(Cc3ccco3)C2=O)c2ccccc21` the Potency was active: 16.9 µM.
With `CCOc1cc(-c2ccc(N)c(OCC)c2)ccc1N` the Potency was inconclusive: 6.01 µM [inhibitor, single point].
With `COc1ccccc1OCCCn1cc(C(=O)c2ccco2)c2ccccc21` the Potency was active: 16.9 µM.
With `CC1CCN(C(=O)COC(=O)c2cn(C)c3ccccc23)CC1` the Potency was active: 23.9 µM.
`Cc1cccc(N=Nc2ccc(N(C)C)cc2)c1` was tested, and the Potency was active: 0.675 µM.
In the case of `CCCn1c(C)c(C(=O)c2cccc3ccccc23)c2ccccc21`, the Potency was inconclusive: 37.9 µM [inhibitor, partial curve, poor fit].
With `CCN1C(=O)/C(=C/c2ccc3c(c2)CCN3CCCCl)C(=O)NC1=S` the Potency was inconclusive: 15.1 µM [inhibitor, partial curve].
For `Cc1cccc(N2C(=O)NC(=O)/C(=C/c3ccc(-c4ccc(C(=O)O)c(Cl)c4)o3)C2=O)c1`, the Potency was active: 6.01 µM.
With `COc1ccc2nc(NC(=O)CCNS(=O)(=O)c3ccc4c(c3)oc(=O)n4C)sc2c1` the Potency was inconclusive: 30.1 µM [inhibitor, single point].
In the case of `CN(c1ccccc1)c1ccc([N+](=O)[O-])c2nonc12`, the Potency was inconclusive: 37.9 µM [inhibitor, partial curve, poor fit].
`CCCCN=C[C@]12CCC(O)CC1(O)CCC1[C@@H]2CC[C@]2(C)[C@H](C3C=CC(=O)O3)CCC12O` (some centres undefined) was tested, and the Potency was “inactive”.
For `O=C(CN1CCCCC1)c1ccccc1Cl`, the Potency was active: 19 µM.
In the case of `O=c1[nH]c(=S)[nH]c(O)c1N=Nc1ccc(-c2ccccc2)cc1[N+](=O)[O-]`, the Potency was inconclusive: 26.9 µM [inhibitor, single point].
For `CCC(C)N1C(=O)/C(=C\c2ccc(N3CCCCCC3)cc2)C(=O)NC1=S` (centres undefined), the Potency was inconclusive: 15.1 µM [inhibitor, partial curve].
`O=C(CSC1c2ccccc2-c2ccccc21)N/N=C/c1ccccc1C(=O)O` was tested, and the Potency was inconclusive: 0.0095 µM [inhibitor, full curve].
With `CCOC(=O)C(O)(c1ccc(NC(=O)NC2CCCCC2)cc1)C(F)(F)F` (centres undefined) the Potency was inconclusive: 30.1 µM [inhibitor, partial curve, poor fit].
With `CCN(CC)C(=O)c1ccc(NC(=O)c2ccc(N3CCCC3=O)cc2)cc1` the Potency was inconclusive: 15.1 µM [inhibitor, partial curve, poor fit].
In the case of `COc1cccc(N2C(=O)NC(=O)/C(=C\c3ccc([N+](=O)[O-])s3)C2=O)c1`, the Potency was inconclusive: 21.3 µM [inhibitor, single point].
With `Nc1cc2nc3ccccc3nc2cc1N` the Potency was active: 19 µM.
`COc1ccc(NC(=O)c2sc3nc4c(cc3c2N)N2CCC4CC2)cc1OC` was tested, and the Potency was inconclusive: 26.9 µM [inhibitor, partial curve, poor fit].
With `CN1C(=O)C(=Cc2ccc(N3CCOCC3)o2)C(=O)N(C)C1=S` the Potency was inconclusive: 12 µM [inhibitor, partial curve].
In the case of `CCOc1ccc(N2C(=O)/C(=C/c3ccc(C)o3)C(=O)NC2=S)cc1`, the Potency was inconclusive: 21.3 µM [inhibitor, partial curve, poor fit].
With `COCc1cc(C)c(C#N)c(=S)[nH]1` the Potency was inconclusive: 26.9 µM [inhibitor, partial curve, poor fit].
For `Cc1ccc(NC(=O)CCNS(=O)(=O)c2ccc3c(c2)oc(=O)n3C)c(C)c1`, the Potency was inconclusive: 26.9 µM [inhibitor, partial curve, poor fit].
For `CSc1cccc(CNC(=O)C2CCC(=O)N(Cc3cccc(C(F)(F)F)c3)C2)c1` (centres undefined), the Potency was active: 16.9 µM.
For `COc1ccc2c(c1)-c1nc(NC(=O)c3ccc(Cl)cc3)sc1CC2`, the Potency was inconclusive: 7.57 µM [inhibitor, partial curve].
With `Cc1ccc(-n2sc3ccccc3c2=O)cc1` the Potency was active: 4.78 µM.
`Nc1ccc2c(c1)oc1ccccc12` was tested, and the Potency was inconclusive: 37.9 µM [inhibitor, partial curve, poor fit].
`COc1ccc(/C=N/N=C(/N)N[N+](=O)[O-])c(OC)c1` was tested, and the Potency was inconclusive: 37.9 µM [inhibitor, partial curve, poor fit].
For `O=S(=O)(c1ccccc1)N1CC1c1ccccc1` (centres undefined), the Potency was inconclusive: 26.9 µM [inhibitor, partial curve, poor fit].
In the case of `Cn1c(O)c(C=NC2CC3CCC2(C)C3(C)C)c(=O)[nH]c1=O` (centres undefined), the Potency was inconclusive: 37.9 µM [inhibitor, partial curve, poor fit].
In the case of `COC(=O)C1=C(c2ccc(OC)c(OC)c2)C[C@@H]2CC[C@H]1N2C(=O)NC1Cc2ccccc2C1`, the Potency was inconclusive: 6.75 µM [inhibitor, partial curve, poor fit].
`CCOc1ccc(N2C(=O)NC(=O)/C(=C\c3cc(OC)c(OC)cc3[N+](=O)[O-])C2=O)cc1` was tested, and the Potency was inconclusive: 26.9 µM [inhibitor, single point].
`FC(F)(F)c1ccc(NC2=NCCCS2)cc1` was tested, and the Potency was inconclusive: 37.9 µM [inhibitor, partial curve, poor fit].
With `CN(C)C(=O)O/N=C(\N)COc1ccc(C(C)(C)C)cc1` the Potency was inconclusive: 37.9 µM [inhibitor, partial curve, poor fit].
In the case of `CC(C)N1C(=S)SC(C)(C)C1n1oc(=O)n(-c2ccc(Cl)c(Cl)c2)c1=O` (centres undefined), the Potency was inconclusive: 6.75 µM [inhibitor, partial curve, poor fit].
For `CCN(CC)C(=O)c1ccc2c(c1)C1C=CCC1C(C(=O)O)N2` (centres undefined), the Potency was inconclusive: 26.9 µM [inhibitor, single point].
`Cc1ccc(CNC(=O)c2ccccc2NC(=O)c2nsc3ccccc23)cc1` was tested, and the Potency was active: 16.9 µM.
In the case of `CN(C)c1ccc(/C=C/C=C2/C(=O)NC(=O)N(c3ccccc3)C2=O)cc1`, the Potency was active: 4.26 µM.
With `O=C(NC1CCCCC1)c1ccc(CSc2nc3ccncc3n2Cc2ccc(F)cc2)cc1` the Potency was inconclusive: 15.1 µM [inhibitor, partial curve, poor fit].
In the case of `CC1CCCCN1CC(=O)c1ccc2cc[nH]c2c1` (centres undefined), the Potency was inconclusive: 26.9 µM [inhibitor, partial curve, poor fit].
`COC(=O)C(O)(c1ccc(NC(=O)NC2CCCCC2)cc1)C(F)(F)F` (centres undefined) was tested, and the Potency was active: 12 µM.
For `N/C(=N\OC(=O)CCC1CCCC1)c1ccccc1`, the Potency was inconclusive: 3.38 µM [inhibitor, full curve, poor fit].
In the case of `C=C1C[C@]2(O)[C@@]3(C)CCC(=O)C(C)(C)C3=C(O)C(=O)[C@@]2(C)[C@@H]2C(=O)O[C@@](C)(C(=O)OC)C(=O)[C@@]12C`, the Potency was inconclusive: 21.3 µM [inhibitor, single point].
In the case of `O=C(CSCC(=O)N1CCOCC1)Nc1nc(-c2ccc3c(c2)OCO3)cs1`, the Potency was inconclusive: 26.9 µM [inhibitor, partial curve].
`Cc1ccc(Cn2cccc(C(=O)Nc3ccc4c(c3)OCO4)c2=O)cc1` was tested, and the Potency was “inactive”.
In the case of `O=Cc1c(C(=O)O)n(Cc2ccccc2Cl)c2ccccc12`, the Potency was inconclusive: 26.9 µM [inhibitor, single point].
In the case of `COc1ccc(N2C(=O)NC(=O)/C(=C/c3ccc4c(c3)Cc3ccccc3-4)C2=O)cc1`, the Potency was inconclusive: 26.9 µM [inhibitor, single point].
`CCOC(=O)CSc1ccc2ccccc2n1` was tested, and the Potency was inconclusive: 23.9 µM [inhibitor, partial curve].
